In PubChem BioAssay AID434955 (Southern Research Specialized Biocontainment Screening …, 2010) one finds inhibition data, which are given here for 68 molecules.

The other results are listed elsewhere or left out. Further columns of the screen follow, without active or inactive calls. Most of these compounds were active or inconclusive in the main read-out, so they are no random draw.

The nature of the experiment: beta-lactam sensitization of Mtb H37Rv, H37Rv (AID 434955).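 Note: growth measured after seven days incubation then overnight dye step; 0% = bacteria only wells and 100% = bacteria with antibiotic.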 Particulars: M. tuberculosis H37Rv growth with meropenem, percent inhibition; measured here: primary screen without meropenem; at 25 µM.
As for `NC(=O)C1CCN(C(=O)CN(c2cccc(Cl)c2)S(=O)(=O)c2ccccc2)CC1`, the inhibition (commonly the change of the read-out against control, counted positive when it falls) was -4.47%.

On to `O=C(COc1ccccc1F)Nc1c2c(nn1-c1ccccc1)CS(=O)(=O)C2`, for which the inhibition stood at 21.1%. The same measure for `CCN(CC(=O)Nc1ccccc1OC)C(=O)COc1ccc2ccccc2c1`: 2.67%. Under `CCCCn1c(N)c(N(CC)C(=O)CSCc2c(C)noc2C)c(=O)[nH]c1=O` stands 3.74%. For the molecule `COc1cc2c(cc1OC)[C@H](C)N(C(=O)COc1ccccc1)CC2`, the inhibition came out at 3.6%.

`Cc1ccc(C)c(SCc2noc(C(=O)NCC3CCCO3)c2C(=O)O)c1` (stereo not drawn): the inhibition was 27.9%.

In the case of `Cc1cccc(N(C(=O)c2cnc3n(c2=O)CCS3)C2CCCCC2)c1`, the inhibition is -4.25%. Under `CC(C)c1ccc(/C=C/C(=O)NC2CCCCC2)cc1` stands 11.4%.

As to `CCOc1[nH]n(-c2ccc(Cl)cc2)c(=O)c1C=Nc1ccc(O)cc1`, the inhibition came out at 7.79%. The same measure for `COc1ccc(S(=O)(=O)N(C)c2ccc(C(=O)N3CCCCC3)cc2)cc1`: -3.98%. Consider `O=C(Nc1ccccc1C(=O)N1CCCC1)C1CCN(c2ncccn2)CC1`, for which the inhibition was 1.89%. Regarding `Cc1nn2c(N3CCOCC3)cc(C(C)C)nc2c1-c1ccccc1`, the inhibition was -3.71%. Consider `O=C(Nc1nc2ccccc2n1Cc1ccccc1)c1ccc(COc2ccccc2[N+](=O)[O-])o1`, for which the inhibition amounted to 10.6%. For `Cc1ccccc1C(=O)c1cccn1CC(=O)NCc1ccc2c(c1)OCO2`, the inhibition is -4.39%. In the case of `Cc1nc(NCC2CCCO2)c2nnn(Cc3ccccc3)c2n1` (stereo not drawn), the inhibition was -7.93%. As for `COc1cccc(OC)c1OCCCc1c(C)n[nH]c1C`, the inhibition amounted to 0.07%.

As to `O=C(COCc1cc(-c2ccc3c(c2)OCO3)on1)N1CCN(c2ccc(F)cc2)CC1`, the inhibition is 3.93%. The same measure for `COCc1ccc(CN2CCC(n3nccc3NC(=O)CCOc3ccccc3)CC2)o1`: -4.71%; for `Cc1coc2c(C)c3oc(=O)c(CCC(=O)NCCC(=O)O)c(C)c3cc12`: 1.77%; for `CN(CC1CCCO1)S(=O)(=O)c1ccc(C(=O)Nc2ccc(F)cc2)cc1` (stereo not drawn): -1.26%. Under `Cn1nccc1C(=O)N(CCN1CCCCC1)CC1CCCN(C2CCCC2)C1` (stereo not drawn) stands 3.91%; under `CCN(CC)c1ccc(NC(=O)CSc2nnc(N)s2)cc1C`, -6.12%.

For `CCN(CC)CCN1C(=O)c2ccccc2NC1c1ccc(C)cc1` (stereo not drawn), the inhibition turned out to be 1.76%. `COc1cccc(C2CC(c3ccccc3OC)n3ncnc3N2)c1` (stereo not drawn): the inhibition is -5.17%. The same measure for `Cc1ccc(S(=O)(=O)c2nc(C(C)(C)C)oc2N2CCOCC2)cc1`: -6.95%; for `CC1CCCCC1NC(=O)COCc1cc(-c2cccs2)on1` (stereo not drawn): 5.9%; for `CCCCn1c(O)c(C(CC)=NC(C)c2ccccc2)c(=O)[nH]c1=O` (stereo not drawn): 6.7%. For the molecule `Cc1ccc(C(=O)C(C)Oc2ccc3ccc(=O)oc3c2)cc1` (stereo not drawn), the inhibition was determined as 11.9%. The same measure for `CC1CCN(C(=O)CSc2nc(N)c(NC(=O)c3ccccc3)c(=O)[nH]2)CC1`: -0.02%. For the molecule `COC(=O)c1ccccc1OC(=O)c1cc2ccccc2oc1=O`, the inhibition was 11.2%. In the case of `CC1CC(C)CN(C(=O)CSc2nnc(-c3ccc(F)cc3)o2)C1` (stereo not drawn), the inhibition was -3.25%. For `CC1CCc2nn(CC(=O)NCCCN3CCOCC3)cc2C1` (stereo not drawn), the inhibition turned out to be 1.68%. Under `CCN1CCN(Cc2cc(Br)cc(OC)c2O)CC1` stands -1.27%; under `Cc1noc(/C=C/N(C)C)c1S(=O)(=O)N1CCCC(C(=O)NC(C)c2ccccc2)C1` (stereo not drawn), 2.26%; under `CCOC(=O)N1CCN(C(=O)C2CCN(C(=O)c3ccc([N+](=O)[O-])cc3)CC2)CC1`, 2.98%. Under `O=C(Cn1nc(C(F)(F)F)c2c1CCC2)N1CCN(c2ccccc2)CC1` stands -0.41%; under `C=C(C)C(=O)O[C@H]1C/C(C)=C\C(=O)/C=C(\C)[C@H](O)[C@@H]2OC(=O)C(=C)[C@@H]21`, 13.5%. As for `Cc1ccccc1N1CCN(C2CCCN(C(=O)COc3ccccc3)C2)CC1` (stereo not drawn), the inhibition is -2%. Under `O=C(c1cc(COc2ccc3c(c2)CCCC3)on1)N1CCCC1` stands 10.8%; under `O=C(Nc1ccc2nc3n(c(=O)c2c1)CCCC3)c1cc([N+](=O)[O-])ccc1F`, 12.5%.

As for `c1csc(C2Nc3ccccc3-c3nc4ccccc4n32)c1` (stereo not drawn), the inhibition was 1.01%. The same measure for `CN1CCN(Cc2c(O)ccc3c(-c4ccccc4)cc(=O)oc23)CC1`: 1.89%; for `Cc1cccc(NC(=O)c2ccc(COc3ccccc3)o2)n1`: -8.48%. For the molecule `O=C(CN1C(=O)NC2(CCCC2)C1=O)Nc1cc(Cl)ccc1N1CCCC1`, the inhibition came to 3.54%.

On to `CCN1C(=O)c2ccc(C(=O)NCc3ccco3)cc2C1=O`, for which the inhibition is -2.29%. `C=CCNc1nc(-c2ccccc2)nc(-n2ccnc2)n1`: the inhibition came to 72.4%. For `Cc1cc(C)c(S(=O)(=O)Nc2cc(C)on2)c(C)c1`, the inhibition was -1.38%. With `COCCn1c(SCC(=O)N2CCC(C)CC2)nc2c([nH]c3ccccc32)c1=O`, the inhibition amounted to 2.35%.

Regarding `COc1cccc(CN2CCNC(=O)C2CC(=O)N(C)C2CCOCC2)c1OC` (stereo not drawn), the inhibition is -7.83%.

`CCCC1=C/C(=C/c2ccc(-c3ccccc3OC)o2)C(=O)O1`: the inhibition was found to be 44.2%. For `CCCC(=O)NC(c1ccco1)c1c(O)ccc2ccccc12` (stereo not drawn), the inhibition came out at 7.41%. Consider `COc1ccc(-c2ccc(/C=C3/C(=N)N4C(C)=CSC4=NC3=O)o2)c([N+](=O)[O-])c1`, for which the inhibition came to 1.03%. The same measure for `Cc1cc(C)c(C(=O)N2CCCC(N3CCN(c4ccc(F)cc4)CC3)C2)o1` (stereo not drawn): -2.23%; for `CCOC(=O)c1c(NC(=S)NC(=O)c2ccc(Cn3cc(Cl)cn3)o2)sc2c1CCC(C)C2` (stereo not drawn): 3.03%; for `O=S(=O)(c1ccc2c(c1)OCO2)N1CCN(c2nnnn2-c2ccccc2)CC1`: 1.21%.

With `CCc1ccccc1NC(=O)c1cccs1`, the inhibition is -1.28%. Turning to `CCCCn1c(N)c(N(CC(C)C)C(=O)C2CCN(S(=O)(=O)c3ccc(C)c(C)c3)CC2)c(=O)[nH]c1=O`, the inhibition was 0.26%. The same measure for `Cc1cc(C(=O)Nc2ccc(Br)cc2F)n(-c2ccccc2)n1`: 48.4%; for `CON(c1nc(Cl)nc(N(C)C)n1)S(=O)(=O)c1ccc(C)cc1`: 2.86%.

For `CCc1ccc(N2CC(C(=O)NC3CC3)CC2=O)cc1` (stereo not drawn), the inhibition is -6.05%. Consider `O=C(COC(=O)c1ccco1)NCC1CCCO1` (stereo not drawn), for which the inhibition stood at 0.04%.

Consider `COc1cccc(CNc2nc3nc(C)cc(C)n3n2)c1`, for which the inhibition was found to be 8.49%. Under `Cc1ccc(S(=O)(=O)N(C)C)cc1NC(=O)CN1C(=O)NC2(CCCCCC2)C1=O` stands -4.78%. Under `O=C(Nc1cccc(Br)c1)c1cc(S(=O)(=O)N2CCOCC2)cs1` stands 1.33%. `Cn1nccc1C(=O)N1CCCC(N2CCN(c3cccc(C(F)(F)F)c3)CC2)C1` (stereo not drawn): the inhibition is -4.27%. On to `COCc1cc(=O)n2[nH]c(SC)nc2n1`, for which the inhibition is -6.95%. In the case of `O=C(COC(=O)c1ccc(Cl)nc1)NC(=O)c1ccccc1`, the inhibition stood at 14.8%. The same measure for `Cc1cc(Nc2ccc(C(C)C)cc2)n2ncnc2n1`: -4.6%.
